# Hit rate of the full screen: of about 150,000 compounds, about 540 (0.36%) showed an effect of 50% or more. This is one part of the list.
# Tested on: Plasmodium falciparum
# Experiment: Primary screen in NF54 nanoGlo assay, in single point, at 2uM, 72h; a lower Z score goes with more inhibition
# Assay type: functional, Erythrocyte
# Conditions: timepoint 72 hour
SMILES,% Inhibition,Z score
Cn1nc(C(=O)N2CCN(c3cnccn3)CC2)ccc1=O,-12%,2.23
COc1ccc2c(c1)CN(c1cc(C)nc(N)n1)CC2,-3%,0.27
N#Cc1ccc(C(=O)N2C[C@@H](CO)C[C@@H](CN3CCOCC3)C2)cn1,1%,-0.21
CC(C)OCCCNc1ccc(-c2ccnn2C)nn1,3%,-0.37
COc1ncccc1CN(C)C(=O)CC1CCCC1,-11%,1.38
C[C@@H](CNC(=O)c1ccc(Cl)c(-n2cnc3cccnc32)c1)c1ccccc1,31%,-4.45
O=C(CNC1(c2ccc(Br)cc2)CCOCC1)Nc1ccccc1C(F)(F)F,-13%,1.17
CN1CCN(c2cccc(Cl)c2CNc2ccc3ccn(C)c(=O)c3c2)CC1,7%,-1.43
CCOC(=O)c1cnn2c(C(=O)N3CCC[C@H](c4nc(C)cs4)C3)ccnc12,-8%,1.3
COc1cc2ccc1Oc1cccc(c1)CO[C@H]1CN(C(=O)c3c(C)nc4sccn34)C[C@@H]1NC(=O)CN(C1CC1)C(=O)CC2,11%,-2.06
COC(=O)[C@](C)(CO)NCc1ccc(F)c(C)c1,19%,-2.37
CCn1ncc(Cl)c1C(=O)N1CCn2nc(CO)cc2C1,-19%,2.12
Cc1cc(C(C)NC(=O)C2CC(O)CN2)c(C)s1 (stereo not drawn),-9%,1.27
O=C(O)C[C@@H]1CCN(C(=O)c2ccc(F)cc2)C[C@@H]1CCN1CCN(c2ccccc2)CC1,19%,-2.93
CN1CC2(C[C@H]1c1nc(-c3cccnc3)no1)CN(C(=O)CC1CCCCC1)C2,-16%,1.89
CN(Cc1ccc(Cl)s1)c1cncc(C(N)=O)n1,-9%,1.8
Cc1cnc(CN2CCC[C@H]2C(=O)N(C)C)cn1,-4%,0.65
CCc1nc(CN(C)[C@@H](C(=O)O)c2ccc(NC(=O)C(C)(C)C)nc2)no1,-7%,0.8
C[C@H]1CC(=O)Nc2ccccc2N1C(=O)COC(=O)CNC(=O)c1cccc(F)c1,-32%,3.73
CCc1ccccc1OCCN1CCN(C)[C@]2(CCC(=O)N(C)CC2)C1,6%,-1.1
Cc1ccc(-c2ccno2)cc1S(=O)(=O)N[C@H]1CC=CC[C@@H]1C(N)=O,-15%,2.61

SMILES,% Inhibition,Z score
CC1CCN(C(=O)[C@H](C2CCCC2)N2CCN(C(=O)c3ccc(F)cc3)CC2)CC1,-9%,1.58
CCCn1nnn(-c2ccc(OC)c(Cl)c2)c1=O,-30%,3.56
C=C(C)C[C@H](C)C(=O)NCc1snc(OC)c1Br,-9%,1.21
CC(C)Oc1ccccc1[C@H]1Nc2ccccc2C(c2ccccc2)(c2ccccc2)O1,-1%,0.21
COCCC(=O)Nc1cc(F)c(F)cc1Cl,-10%,1.46
Cc1csc([C@@H](Nc2nccnc2C#N)C2CC2)n1,-10%,1.85
COc1ccc(CNC(=O)[C@H]2CCCN(c3nccn4nc(-c5ccc(C)cc5C)cc34)C2)cc1OC,4%,-0.6
CC1CN(C(=O)N[C@@H](C)c2cc3ccccc3o2)CC(=O)N1C (stereo partly drawn),-2%,0.32
COCCN1C(C)CN(S(=O)(=O)NCC(F)(F)F)CC1C (stereo not drawn),4%,-0.84
CC(C)OCCCNc1ccnc(CO)c1,3%,-0.55
CCOCc1c(C(=O)N2CCC[C@H](c3nc4ccccc4s3)C2)oc2ccccc12,9%,-1.63
CC(NC(=O)CC#N)C(c1ccccc1Cl)n1cccn1 (stereo not drawn),-1%,0.24
CCN=C(NCc1ccn(C(C)C)n1)NC1CC1C (stereo not drawn),-2%,0.28
CC(C)n1c(=O)c2nscc2n(CC(=O)Nc2ccc(Cl)cc2)c1=O,-11%,1.34
COc1cccc(-c2noc(Nc3ccc4c(c3)OCO4)n2)c1,-26%,2.27
CO[C@H]1[C@H](NC(=O)c2c(F)ccc(C)c2F)c2ccccc2C12CCNCC2,-16%,2.78
CCN(C(=O)c1ccc(S(=O)(=O)N2CCOCC2)cc1)c1cccc(C)c1,-5%,0.73
c1ccn2c(CCCNc3ncnc4oncc34)nnc2c1,-2%,0.26
O=S1(=O)C[C@H](Nc2nc(C3CCCC3)nc3c2CNC3)[C@@H](O)C1,-6%,0.96
O=C(Cc1cn(-c2ccccc2)nc1-c1ccc(Cl)cc1)NCc1ccco1,-3%,0.36
Cc1cnc(N(C)C/C=C/c2ccccc2)nc1-c1cnn(C)c1,-12%,1.7

SMILES,% Inhibition,Z score
CN(C)c1noc([C@H]2CCCN(c3cc(=O)n4ccccc4n3)C2)n1,-14%,1.77
C=CCNC(=O)C(C)(C)Nc1ccc(C)cc1,-7%,1.44
COc1ccccc1N1CCN(C(=O)[C@H]2CCCN(c3ncnc4c3nc3n4CCCCC3)C2)CC1,-4%,0.64
COCc1cc(CN(C)C(=O)c2n[nH]c3c2CCCC3)n[nH]1,1%,-0.16
COc1ccc(C(=O)N2CCCC[C@@H]2CCN2CCCCC2)cc1Cl,1%,-0.08
NC(=O)c1cnccc1N1CCC[C@H](c2nc(-c3ccccc3)c[nH]2)C1,12%,-1.54
Cc1nc(-c2cccc3ccccc23)ccc1C(=O)O,-15%,1.72
Fc1ccc(C2(c3nc([C@H]4CCOC4)no3)CCC2)cc1,-11%,1.04
Cc1cc(NC(=O)c2ccc(-n3cncn3)nn2)on1,-4%,0.86
Cc1cc(C)cc(OCC(=O)NCCCNC(=O)COc2cc(C)cc(C)c2)c1,5%,-0.65
Cc1cc(CS(=O)(=O)[C@@H](C)C(=O)Nc2cc(C)on2)on1,-6%,1.07
C[C@H]1COc2c(N3CCN(C)CC3)c(F)cc3c(=O)c(C(=O)Nc4cccc5ncccc45)cn1c23,3%,-0.33
COc1ccc(CNC(=O)c2cc3c(n2C)CCN(Cc2ccccc2)C3)cc1OC,-7%,1.12
CCC[C@H](C)c1cc(NC(=O)c2cc(C)on2)[nH]n1,-18%,3.43
CO[C@@H](C)C(=O)NCc1ccc(Cl)cn1,1%,-0.1
Cc1cnc(C(=O)N2CCOc3ncccc3C2)c(C)c1,-1%,0.26
Cc1cc(C2(NC(=O)Nc3ccc4cnccc4c3)CCOCC2)on1,4%,-0.63
Cc1ccccc1[C@@H](C)CC(=O)NC1CCS(=O)(=O)CC1,-4%,0.7
CCc1noc([C@H](C)NC(=O)c2nn(C)cc2Cl)n1,-3%,0.52
CNC(=O)[C@H](NC(=O)Nc1cc(C)nn1C)c1ccc(F)c(F)c1,17%,-2.21
Cc1nnc(-c2cccc(NC(=O)NCCN3CCNC3=O)c2)s1,-18%,1.74

SMILES,% Inhibition,Z score
C[C@H](NC(=O)c1sccc1S(=O)(=O)N1CCCC1)c1ccccc1,6%,-0.69
COc1cccc(C(=O)N[C@]2(C(F)(F)F)C(=O)N(C3CCCCC3)C(C)=C2C(C)=O)c1,-10%,1.19
CN(CCn1cccn1)C(=O)c1ccc2c(c1O)CCCC2,-10%,1.92
O=C(NCc1ccccc1Br)c1cnn2c3c(cnc12)CCCCC3,-8%,1.17
CC(C)C[C@H](N)C(=O)N1CC2CCCCC2C1 (stereo partly drawn),41%,-5.55
CC1(C)CN(C(=O)NCCC2CS(=O)(=O)C2)CCc2ccccc21,-4%,0.57
Cc1noc(C)c1CN(C)C(=O)Nc1cccc2nn(C)nc12,9%,-1.52
Cc1noc(C)c1CN1CC[C@H](NC(=O)c2n[nH]c3ccccc23)[C@@H](O)C1,-1%,0.28
CN(C)c1nc(N2CCN(c3ccc(F)cc3)CC2)nc2c1CN(S(=O)(=O)c1ccccc1)CC2,12%,-1.13
COC(C)(C)C(=O)Nc1cc(CO)c(C)cc1C,-3%,0.44
Cn1cc2c(n1)CCC[C@H]2C(=O)Nc1nccc2ccncc12,0%,0
CCc1ccccc1CNC(=O)Nc1ccn(CCOC)n1,-7%,0.68
O=C(C1CC=CC1)N1CCC2CCCCC21 (stereo not drawn),-2%,0.17
COc1cccc(C)c1C(=O)N(CCc1ccc(F)cc1)Cc1cccnc1,-10%,1.86
CC1(C(=O)Nc2nc3n(n2)CCCC3)CCOCC1,6%,-0.81
CCCN1CCN(C(=O)CN2C(=O)C(C)(C)c3cc(C)ccc32)CC1,-6%,1.01
COCc1cn(C2CCN(C(=O)C3CCCCCC3)CC2)nn1,-7%,1.07
O=C(NCc1ccc(Cl)cc1)c1ccc(-c2cccnc2)cc1,-3%,0.45
Cn1nc2n(c1=O)C[C@@H](C(=O)NCc1ccccc1Cl)CC2,-2%,0.38
O=C(NCCn1cc(-c2nc(-c3cccnc3)no2)nn1)c1cccc(Cl)c1,-8%,1.59
CC(C)c1nnsc1C(=O)N1CCc2nocc2C1,8%,-1.63
